Experimental data as given in article PMC5645412, “AUNIP/C1orf135 directs DNA double-strand breaks towards the homologous recombination repair pathway” (Nature Communications, 2017).
Results are given in words; binding and its absence hold for the method and conditions named. Binding seen in cells or lysates may run through a third protein. Some binding calls cover weakened binding; strength is not graded here. For some of these results: Sequences can lack the tags named with a protein.

Sequences of proteins named here, by UniProt entry; tags and fusion partners are left off.
UniProt O60934: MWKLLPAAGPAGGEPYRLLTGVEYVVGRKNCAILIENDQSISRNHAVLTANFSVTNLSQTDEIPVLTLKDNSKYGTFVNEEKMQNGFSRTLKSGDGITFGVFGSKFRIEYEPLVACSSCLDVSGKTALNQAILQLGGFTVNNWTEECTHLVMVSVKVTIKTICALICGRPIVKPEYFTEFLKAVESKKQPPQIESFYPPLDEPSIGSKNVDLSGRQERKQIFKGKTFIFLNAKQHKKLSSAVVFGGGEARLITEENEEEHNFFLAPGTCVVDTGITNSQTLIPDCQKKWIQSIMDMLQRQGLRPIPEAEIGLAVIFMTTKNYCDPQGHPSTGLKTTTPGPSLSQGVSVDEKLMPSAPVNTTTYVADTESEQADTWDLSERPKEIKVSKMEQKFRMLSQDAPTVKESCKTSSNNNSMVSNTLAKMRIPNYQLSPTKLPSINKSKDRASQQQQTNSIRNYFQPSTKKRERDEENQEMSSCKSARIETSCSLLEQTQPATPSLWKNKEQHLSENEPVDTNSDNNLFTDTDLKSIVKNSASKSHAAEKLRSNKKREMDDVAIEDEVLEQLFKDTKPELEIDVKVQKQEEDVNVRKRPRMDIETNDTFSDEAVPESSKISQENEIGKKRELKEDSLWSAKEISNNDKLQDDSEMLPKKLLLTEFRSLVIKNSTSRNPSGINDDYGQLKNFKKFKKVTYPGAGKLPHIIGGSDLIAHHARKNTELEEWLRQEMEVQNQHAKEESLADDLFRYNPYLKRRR
UniProt Q92878: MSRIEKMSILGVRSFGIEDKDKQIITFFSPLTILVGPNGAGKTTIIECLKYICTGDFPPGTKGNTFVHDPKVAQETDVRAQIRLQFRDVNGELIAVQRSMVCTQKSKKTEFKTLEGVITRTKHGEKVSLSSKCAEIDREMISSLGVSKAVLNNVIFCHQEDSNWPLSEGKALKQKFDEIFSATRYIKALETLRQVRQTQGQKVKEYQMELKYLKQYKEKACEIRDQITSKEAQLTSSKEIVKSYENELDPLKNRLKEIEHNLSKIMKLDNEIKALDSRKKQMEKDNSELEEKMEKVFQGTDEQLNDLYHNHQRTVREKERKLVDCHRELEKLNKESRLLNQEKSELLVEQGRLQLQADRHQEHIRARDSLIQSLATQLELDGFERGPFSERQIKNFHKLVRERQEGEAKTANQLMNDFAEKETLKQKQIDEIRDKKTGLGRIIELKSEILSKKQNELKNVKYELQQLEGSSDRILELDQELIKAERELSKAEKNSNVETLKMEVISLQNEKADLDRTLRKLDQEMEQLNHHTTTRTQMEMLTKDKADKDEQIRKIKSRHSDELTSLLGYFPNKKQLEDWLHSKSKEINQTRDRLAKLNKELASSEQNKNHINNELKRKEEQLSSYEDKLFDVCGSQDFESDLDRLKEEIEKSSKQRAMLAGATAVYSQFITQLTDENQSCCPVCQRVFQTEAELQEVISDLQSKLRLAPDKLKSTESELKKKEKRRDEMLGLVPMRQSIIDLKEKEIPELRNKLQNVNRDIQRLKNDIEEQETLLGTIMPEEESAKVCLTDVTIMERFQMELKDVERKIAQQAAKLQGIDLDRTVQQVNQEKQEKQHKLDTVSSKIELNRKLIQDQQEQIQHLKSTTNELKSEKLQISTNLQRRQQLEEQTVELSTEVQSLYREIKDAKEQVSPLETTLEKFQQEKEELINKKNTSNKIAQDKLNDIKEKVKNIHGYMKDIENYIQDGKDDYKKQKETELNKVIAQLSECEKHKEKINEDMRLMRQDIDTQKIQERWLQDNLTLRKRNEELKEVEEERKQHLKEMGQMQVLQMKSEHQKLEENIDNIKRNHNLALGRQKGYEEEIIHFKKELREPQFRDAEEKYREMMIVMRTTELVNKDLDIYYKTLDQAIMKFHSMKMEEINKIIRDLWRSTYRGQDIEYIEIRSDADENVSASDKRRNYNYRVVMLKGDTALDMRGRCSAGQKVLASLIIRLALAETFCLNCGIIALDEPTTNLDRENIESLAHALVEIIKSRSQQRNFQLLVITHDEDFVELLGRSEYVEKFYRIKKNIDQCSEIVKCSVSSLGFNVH

T1: SFB-tagged AUNIP (human) (UniProt Q9H7T9)
T1 sequence: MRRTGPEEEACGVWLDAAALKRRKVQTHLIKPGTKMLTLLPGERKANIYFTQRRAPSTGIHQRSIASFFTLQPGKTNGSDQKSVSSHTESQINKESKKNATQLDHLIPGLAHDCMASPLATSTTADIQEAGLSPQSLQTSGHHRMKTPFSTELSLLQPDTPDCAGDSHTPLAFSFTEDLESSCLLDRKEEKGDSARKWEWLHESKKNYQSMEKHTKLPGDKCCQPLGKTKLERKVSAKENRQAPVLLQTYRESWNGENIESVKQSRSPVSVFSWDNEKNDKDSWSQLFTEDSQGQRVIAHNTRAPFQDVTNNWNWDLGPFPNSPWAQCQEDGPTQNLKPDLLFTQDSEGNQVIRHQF

T2: endogenous AUNIP (human (endogenous in HeLa)) (UniProt Q9H7T9)
T2 sequence: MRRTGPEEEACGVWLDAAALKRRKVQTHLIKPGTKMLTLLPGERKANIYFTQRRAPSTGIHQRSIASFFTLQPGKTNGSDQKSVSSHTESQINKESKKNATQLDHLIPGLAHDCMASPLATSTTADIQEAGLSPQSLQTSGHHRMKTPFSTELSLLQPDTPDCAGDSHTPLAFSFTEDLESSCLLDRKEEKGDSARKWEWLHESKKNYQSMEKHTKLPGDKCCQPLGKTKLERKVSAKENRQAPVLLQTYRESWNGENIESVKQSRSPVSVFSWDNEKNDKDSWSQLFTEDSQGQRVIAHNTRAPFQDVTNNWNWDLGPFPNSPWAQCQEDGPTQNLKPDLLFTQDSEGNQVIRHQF


Legend:
[1] = target: T1, SFB-tagged AUNIP (human); assay: co-IP; HEK293T cells transiently transfected with SFB-tagged AUNIP (wild type or mutant) and Myc-tagged partners; NETN lysates on S-protein beads, 4 h at 4 °C; immunoblot
[2] = target: T1, SFB-tagged AUNIP (human); assay: co-IP; HEK293T cells co-transfected with SFB-AUNIP and one Myc-tagged protein, lysed with NETN buffer; lysates incubated with S protein beads; western blot with anti-Myc and anti-Flag
[3] = target: T2, endogenous AUNIP (human (endogenous in HeLa)); assay: co-IP; endogenous proteins; HeLa cell lysates treated with Benzonase, with or without CPT treatment of the cells, precipitated with anti-AUNIP or anti-CtIP antibodies; immunoblot

| Molecule | binding [1] | binding [2] | binding [3] |
| --- | --- | --- | --- |
| NBS1 (endogenous, HeLa) (from UniProt O60934 1-754) |  |  | binds |
| RAD50 (endogenous, HeLa) (from UniProt Q92878 1-1312) |  |  | binds |

Continued, values first:

| binding [1] | binding [2] | binding [3] | Molecule |
| --- | --- | --- | --- |
| binds | binds |  | Myc-tagged RAD50 (from UniProt Q92878 1-1312) |
| binds | binds |  | Myc-tagged NBS1 (from UniProt O60934 1-754) |
| no binding |  |  | Morc3 (protein, UniProt Q14149 1-939) MAAQPPRGIRLSALCPKFLHTNSTSHTWPFSAVAELIDNAYDPDVNAKQIWIDKTVINDHICLTFTDNGNGMTSDKLHKMLSFGFSDKVTMNGHVPVGLYGNGFKSGSMRLGKDAIVFTKNGESMSVGLLSQTYLEVIKAEHVVVPIVAFNKHRQMINLAESKASLAAILEHSLFSTEQKLLAELDAIIGKKGTRIIIWNLRSYKNATEFDFEKDKYDIRIPEDLDEITGKKGYKKQERMDQIAPESDYSLRAYCSILYLKPRMQIILRGQKVKTQLVSKSLAYIERDVYRPKFLSKTVRITFGFNCRNKDHYGIMMYHRNRLIKAYEKVGCQLRANNMGVGVVGIIECNFLKPTHNKQDFDYTNEYRLTITALGEKLNDYWNEMKVKKNTEYPLNLPVEDIQKRPDQTWVQCDACLKWRKLPDGMDQLPEKWYCSNNPDPQFRNCEVPEEPEDEDLVHPTYEKTYKKTNKEKFRIRQPEMIPRINAELLFRPTALSTPSFSSPKESVPRRHLSEGTNSYATRLLNNHQVPPQSEPESNSLKRRLSTRSSILNAKNRRLSSQFENSVYKGDDDDEDVIILEENSTPKPAVDHDIDMKSEQSHVEQGGVQVEFVGDSEPCGQTGSTSTSSSRCDQGNTAATQTEVPSLVVKKEETVEDEIDVRNDAVILPSCVEAEAKIHETQETTDKSADDAGCQLQELRNQLLLVTEEKENYKRQCHMFTDQIKVLQQRILEMNDKYVKKETCHQSTETDAVFLLESINGKSESPDHMVSQYQQALEEIERLKKQCSALQHVKAECSQCSNNESKSEMDEMAVQLDDVFRQLDKCSIERDQYKSEVELLEMEKSQIRSQCEELKTEVEQLKSTNQQTATDVSTSSNIEESVNHMDGESLKLRSLRVNVGQLLAMIVPDLDLQQVNYDVDVVDEILGQVVEQMSEISST |
